# Measured values as given in a collection of fitness landscapes (doi:10.1016/j.celrep.2020.107928).
# In all, about 81,000 sequences were measured (“one-hybrid fitness for binding parS DNA”: median about -0.17, highest 2% from about 0.51 on). Some of the results follow.
# B1: Caulobacter ParB omega fusion; a variant is named by its letters at X, in order, B8GW30 (parent)
# chain: MESVVVGEPGMSEGRRGLGRGLSALLGEVDAAPAQAPGEQLGGSREAPIEILQRNPDQPRRTFREEDLEDLSNSIREKGVLQPILVRPSPDTAGEYQIVAGERAWRAAQRAGLKTVPIMVRELDDLAVLEIGIIENVQRADLNVLEEALSYKVLMEKFERTQENIAQTIGKSXSHVANXMRLLXLPDEVQSYLVSGELTAXHARAIAAAADPVALAKQIIEGGLSVRETEALARKAPNLSAGKSKGGRPPRVKDTDTQALESDLSSVLGLDVSIDHRGSTGTLTITYATLEQLDDLCNRLTRGI
# Variants of: B1
# Assay: one-hybrid fitness for binding parS DNA (scaled: cognate 1, non-cognate 0); higher = stronger binding
# Conditions: with parS DNA site
# Method in brief: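 Caulobacter ParB libraries with four specificity codons randomised were screened by bacterial one-hybrid selection in the E. coli USO strain, using a HIS3 reporter whose site lies 19 bp from the promoter. Selection ran for 48 hours at 37°C on M9 lacking histidine, with 0.1 mM IPTG and 5 mM 3-AT. Plasmids were Illumina-sequenced before and after selection, three replicate libraries were pooled, and variants with under 10 reads were dropped. Fitness is the log change in each variant's read ratio to wild type, rescaled against the cognate and non-cognate sites.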
row,Variant,one-hybrid fitness for binding parS DNA
1,GWDK,≤ 0.2
2,KISV,≤ 0.2
3,YVSR,≤ 0.2
4,RRLI,≤ 0.2
5,HPLG,≤ 0.2
6,RPSW,≤ 0.2
7,FKSY,≤ 0.2
8,GMMW,≤ 0.2
9,IAHT,≤ 0.2
10,AICS,≤ 0.2
11,RLCW,0.288
12,GNES,≤ 0.2
13,VDKV,≤ 0.2
14,KLEL,≤ 0.2
15,MIPV,≤ 0.2
16,VGRR,≤ 0.2
17,TPKK,≤ 0.2
18,GLLA,≤ 0.2
19,CGAD,≤ 0.2
20,VFCG,≤ 0.2
21,QDLS,≤ 0.2
22,GEQT,≤ 0.2
23,QAVF,≤ 0.2
24,HPAT,≤ 0.2
25,LQKR,≤ 0.2
26,RAKF,0.385

row,Variant,one-hybrid fitness for binding parS DNA
1,DTNT,≤ 0.2
2,ENKQ,≤ 0.2
3,NKQS,≤ 0.2
4,APNS,≤ 0.2
5,GCPD,≤ 0.2
6,IVPF,≤ 0.2
7,PPED,≤ 0.2
8,FISY,≤ 0.2
9,YTSV,≤ 0.2
10,QRHE,≤ 0.2
11,RKFF,≤ 0.2
12,NDHR,≤ 0.2
13,SYKG,≤ 0.2
14,PPHN,≤ 0.2
15,MQVV,≤ 0.2
16,SHWD,≤ 0.2
17,LMYG,≤ 0.2
18,YMKG,≤ 0.2
19,RSEF,≤ 0.2
20,TPAP,≤ 0.2
21,YNKC,≤ 0.2
22,QYWY,≤ 0.2
23,PGPF,≤ 0.2
24,MGFG,≤ 0.2
25,AHCC,≤ 0.2
26,AAFG,≤ 0.2

row,Variant,one-hybrid fitness for binding parS DNA
1,LRMM,≤ 0.2
2,YLNR,≤ 0.2
3,YRAF,≤ 0.2
4,LSMC,≤ 0.2
5,HIFW,≤ 0.2
6,STML,≤ 0.2
7,VAFI,≤ 0.2
8,RHAE,≤ 0.2
9,RGAR,≤ 0.2
10,RVMV,≤ 0.2
11,QMAP,≤ 0.2
12,SQSY,≤ 0.2
13,YHVC,≤ 0.2
14,RFLV,≤ 0.2
15,RAFM,0.331
16,YGGS,≤ 0.2
17,CPEV,≤ 0.2
18,SVFW,≤ 0.2
19,CRLD,≤ 0.2
20,LRKL,≤ 0.2
21,KPLM,≤ 0.2
22,QCYT,≤ 0.2
23,NVMT,≤ 0.2
24,WHGM,≤ 0.2
25,IHID,≤ 0.2
26,GRNA,≤ 0.2

row,Variant,one-hybrid fitness for binding parS DNA
1,SGPT,≤ 0.2
2,FGTW,≤ 0.2
3,YMPF,≤ 0.2
4,HSKP,≤ 0.2
5,RQHS,0.988
6,YFEV,≤ 0.2
7,PDKK,≤ 0.2
8,VLDN,≤ 0.2
9,PVTA,≤ 0.2
10,AYNT,≤ 0.2
11,NRWL,≤ 0.2
12,ENMV,≤ 0.2
13,CFTR,≤ 0.2
14,TMFL,≤ 0.2
15,ENTE,≤ 0.2
16,IMAS,≤ 0.2
17,HTIV,≤ 0.2
18,YKDC,≤ 0.2
19,PCAD,≤ 0.2
20,QREW,≤ 0.2
21,TIIR,≤ 0.2
22,ALYW,≤ 0.2
23,WPHT,≤ 0.2
24,KEQS,≤ 0.2
25,ALWS,≤ 0.2
26,QNKA,≤ 0.2

row,Variant,one-hybrid fitness for binding parS DNA
1,LKHN,≤ 0.2
2,WVGK,≤ 0.2
3,MHLT,≤ 0.2
4,TACT,≤ 0.2
5,QHLP,≤ 0.2
6,LSNY,≤ 0.2
7,RCTK,≤ 0.2
8,QKCK,≤ 0.2
9,HLRM,≤ 0.2
10,QRWE,≤ 0.2
11,YKQP,≤ 0.2
12,LWMG,≤ 0.2
13,NFHC,≤ 0.2
14,FMKW,≤ 0.2
15,TSST,≤ 0.2
16,PFGC,≤ 0.2
17,ANAW,≤ 0.2
18,APHV,≤ 0.2
19,FEPF,≤ 0.2
20,AKLC,≤ 0.2
21,QNQY,≤ 0.2
22,HYKC,≤ 0.2
23,IKNS,≤ 0.2
24,QHQD,≤ 0.2
25,LPDG,≤ 0.2
26,MKPR,≤ 0.2

row,Variant,one-hybrid fitness for binding parS DNA
1,EAQF,≤ 0.2
2,LDSV,≤ 0.2
3,QSGT,≤ 0.2
4,KLFG,≤ 0.2
5,KLQG,≤ 0.2
6,APAI,≤ 0.2
7,VFVR,≤ 0.2
8,RIVR,≤ 0.2
9,KVIT,≤ 0.2
10,QFGG,≤ 0.2
11,RFYW,≤ 0.2
12,NQQV,≤ 0.2
13,HWQF,≤ 0.2
14,QCRV,≤ 0.2
15,QYHV,≤ 0.2
16,VVAC,≤ 0.2
17,IIYF,≤ 0.2
18,ASYG,≤ 0.2
19,QPKD,≤ 0.2
20,QLSE,≤ 0.2
21,LWDC,≤ 0.2
22,YRGC,0.271
23,CDAS,≤ 0.2
